In the supplement of paper PMC3334620:
In all, about 33,000 sequences were measured (“E-score (-0.5 to 0.5)”: median about -0.032, highest 2% from about 0.36 on). The list shows a part of the results.

molecular target: T1, Sko1 (UniProt Q02100); test: PBM E-score (8-mer binding enrichment) (E-score (-0.5 to 0.5)); higher = stronger / more preferred TF binding; most listed sequences are background and not binding sites; conditions: protein concentration: 200 nM; construct: GST-full length
T1 sequence: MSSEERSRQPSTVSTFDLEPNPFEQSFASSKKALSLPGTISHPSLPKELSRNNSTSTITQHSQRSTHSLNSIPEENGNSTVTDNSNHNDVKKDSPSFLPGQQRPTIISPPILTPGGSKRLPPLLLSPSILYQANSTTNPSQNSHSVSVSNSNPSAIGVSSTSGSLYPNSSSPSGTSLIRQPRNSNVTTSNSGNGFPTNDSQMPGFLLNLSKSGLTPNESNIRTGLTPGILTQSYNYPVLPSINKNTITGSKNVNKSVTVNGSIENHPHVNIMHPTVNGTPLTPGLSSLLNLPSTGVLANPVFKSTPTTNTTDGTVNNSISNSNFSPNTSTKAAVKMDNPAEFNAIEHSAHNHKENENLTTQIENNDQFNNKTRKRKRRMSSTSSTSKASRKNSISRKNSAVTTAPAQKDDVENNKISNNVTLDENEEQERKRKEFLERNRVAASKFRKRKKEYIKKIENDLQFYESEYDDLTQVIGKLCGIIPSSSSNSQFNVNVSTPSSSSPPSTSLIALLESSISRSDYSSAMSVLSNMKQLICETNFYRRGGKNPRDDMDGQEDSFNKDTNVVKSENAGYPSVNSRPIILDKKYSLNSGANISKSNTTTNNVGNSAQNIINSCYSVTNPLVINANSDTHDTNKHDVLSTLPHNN
Method in brief: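 Full-length yeast transcription factors or their DNA-binding domains, GST-tagged and expressed with PURExpress, were applied at about 100-200 nM to universal all-10-mer Agilent arrays. These arrays had been made double-stranded by primer extension on fresh or once-stripped slides. Detection used fluorescent anti-GST, normalisation used masliner, and E-scores for ungapped eight-base words pooled with reverse complements came from the Universal PBM Analysis Suite.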

Sequence | PBM E-score
GCTATCAC | 0.0252
TGGCCACA | -0.0976
ACGCACTC | 0.285
AGTAGCAT | -0.0244
AAACTTGA | 0.114
AAGACTCA | -0.102
AGTTGCAA | 0.219
GCCCCCCA | -0.462
ATGCTGCA | -0.168
ACTTTTCT | -0.022
GCTACAGC | -0.212
ACTGCCGA | -0.181
CACACAAC | 0.068
AAACAGTT | 0.172
GATTGGCC | -0.172
TAACTAGA | 0.187
AATAATGG | 0.147
CAATCACG | 0.278
TGTAAGAA | 0.208
ATAAACAG | 0.122
CGGTTATC | -0.0912
GGTAGATA | 0.0735
AACCCGCT | -0.326
ACTGAATA | 0.0581
TCCGGCAA | -0.0876

Sequence | PBM E-score
CGAGGTAA | -0.107
CTTAGGTA | 0.139
AACGACTA | 0.214
AGAGACCA | -0.0799
ATGATACA | 0.222
AAATACTT | 0.168
GGCGTAAC | 0.0903
ACATACGC | 0.28
CTATGGGA | -0.134
AAGTGCCC | -0.316
ACCTTTCA | -0.108
GACGATCC | -0.0861
ACGCGGCG | 0.096
GTCCTAGA | 0.0451
AAACCATG | -0.0853
AGAACAGC | -0.0778
ATCATAGC | 0.269
GAACTACC | -0.0763
CTGCTGAC | 0.0145
CTAATCTA | 0.0405
GAACACGC | 0.0523
ACGCTCAC | 0.112
GTCAGATA | 0.197
CTGATTGC | 0.0319
GATACAGC | -0.0591

Sequence | PBM E-score
TCTTAAGA | 0.145
CTCGGAGA | -0.186
ATATCTAA | 0.184
AAATCGGG | -0.185
CTCCAATC | -0.165
ATATTGTC | 0.0716
GCCCAACC | -0.075
CAGACACG | -0.0625
ATGCTAAG | -0.0737
AACGTGTG | 0.272
AAGAGCCT | -0.166
CGCAAAAC | 0.26
ACTGCACT | -0.132
CACGAATG | 0.233
CTTGAGAC | -0.162
CATGACCG | 0.0181
ACGCCTTC | -0.141
AGACCTCT | -0.116
ATAGGTAA | 0.209
AGTTAATA | 0.2
AGACAGCT | -0.183
CTCACCGC | -0.171
GCACCCGC | -0.0958
CGAATCGC | -0.0166
AGGGTGAT | -0.111

Sequence | PBM E-score
ATCCTGCG | 0.00674
TCCTTCCA | -0.115
CATTATTC | 0.0126
GGGAAGAA | -0.152
ATAGGTCG | -0.195
ACACAAGG | -0.0621
ACTGCACA | -0.0526
CATCGTCG | -0.16
ATGCCCAT | -0.199
CGAAGACC | -0.266
CTTTGAGC | -0.228
CTCTTAAG | -0.0218
AGTCGCCA | -0.234
ATCCCCGG | -0.296
TCTCGTAA | 0.276
GTATTCAC | 0.221
CCCAGTCG | -0.115
AAACGTAC | 0.37
ATGCTACG | 0.305
ATACGTAG | 0.471
GTTCTGCA | 0.103
AATTTCTG | 0.133
AAATTTAA | 0.165
GAGCATAA | -0.00043
CCGTGCTA | -0.244

Sequence | PBM E-score
ACTCAGCC | -0.163
ACGAGCTG | -0.0394
CCATAGGC | -0.352
CAAGCGCA | 0.106
CTTCTGAC | 0.238
ATCACAGG | -0.0617
ACATGAAC | 0.0961
TGCTCCAA | -0.0806
CCACCAAC | -0.0746
TAAAGACA | 0.0889
GAATGCTC | -0.0513
CGCCTCTC | -0.301
CAGGCTGA | -0.152
CTCATAAC | 0.0609
ATGACAAT | 0.188
ACCGGCGT | 0.0278
ATGAATGC | 0.187
TCGCTACA | -0.243
ACCTAATC | 0.256
AAAGATAT | 0.152
CACGCCCG | -0.142
CCAGATTC | -0.283
TCGCAGCA | -0.00491
GAATGCCC | -0.261
ATGTGGAG | -0.0702

Sequence | PBM E-score
GAAACATC | 0.0562
ATTGCGCG | 0.306
ATCATTTA | 0.35
GACACGGC | -0.0578
GGAAGCAA | -0.063
CATAAGGC | 0.125
AATACAGT | 0.0046
AAGTTTAA | 0.043
AAAGGGTT | -0.115
CGAACGTC | 0.238
ACATACAA | 0.139
GACCTGCA | -0.185
CTCACGTA | 0.356
AAACCCTG | -0.224
TACCCCAA | -0.12
CACTCGGG | -0.291
CCCCAGCG | -0.194
AACGAGAC | -0.013
CATACAAA | 0.251
AGGTGCTG | -0.288
AAAATTAG | 0.0606
AGATTGCC | -0.248
CGACAATA | 0.105
CATCCGTC | -0.0447
TCGCATAA | 0.195

Sequence | PBM E-score
GTGATACA | 0.141
ATTAGCCC | -0.156
ATGCCTGA | -0.129
GTCCTTCA | 0.0853
CTCCCAAG | -0.233
AAACTGAA | -0.00727
ACGACCGG | -0.335
ATTATGTG | 0.266
ACTTATTG | -0.0912
AAGGGTTC | -0.272
ATGTCGTC | 0.365
ACTTCGCC | -0.00308
CCTTTACA | 0.0593
CCACGATA | 0.0737
CGAGTTCA | 0.00744
AAGGATAC | 0.00239
GGGCCTAA | -0.266
ACCTCGTG | 0.0137
CTCTAATA | 0.228
AACAGCCA | 0.106
AATGACCT | 0.267
ATTGGAAC | 0.161
CTCTGTTA | -0.0551
GTGTGGAA | 0.199
CCATGGAA | 0.0172

Sequence | PBM E-score
TAGTATCA | 0.187
AGGTGATG | 0.087
GAAAGGAA | -0.0626
CTACATCA | 0.375
GCACTGTA | 0.0278
CTGACCAG | -0.281
AGCGAGAG | 0.00439
ATAGACGG | -0.098
AGTAGAGG | -0.232
TAACTGTA | 0.0544
AGTTACGC | 0.317
GCCACGAC | 0.00461
TACAAATA | 0.222
AAAGACAT | 0.15
AGCCCGCT | -0.379
CGACCATA | -0.0861
ATACGTCG | 0.422
GGTATTAA | 0.00055
AGACTGAG | -0.225
CGGACCAC | -0.156
CATTTGTA | 0.241
AAAGTTAC | 0.259
AGGGGCAT | -0.165
CGAACTAA | 0.143
CGCCTGCA | -0.145

Sequence | PBM E-score
ACGGACTG | -0.149
AAAAACCA | 0.0638
GACGACGA | 0.0774
GGAAATCC | -0.197
CATGTGAG | -0.132
GCGATAAC | 0.108
CCGTATGC | -0.0726
AACCTAAG | -0.0794
GCGCGACC | -0.101
GTCCATGA | 0.00179
CAGAAGGA | -0.308
AACAGATG | -0.0683
AGCCCTCG | -0.187
CAGTTAAA | 0.0533
TTCTTAAA | 0.0524
AAACAAAA | 0.173
TACCTAGA | -0.116
CCCGCAAA | -0.0244
AACTAGGG | -0.0575
